In patent US11178870B2 (priority 2017, dated 2021):

How the values were obtained:
Phytophthora infestans = assay type: in vivo; conditions: class of control value, Table 7
Magnaporthe grisea = assay type: in vivo; conditions: class of control value, Table 7
[1] = system: Colletotrichum orbiculare; conditions: 250 ppm spray, 2.5 ml/pot; investigated 6 to 10 days after inoculation

| SMILES | Test F control value (late blight on tomato) (Phytophthora infestans) | Test A control value (blast on rice) (Magnaporthe grisea) | Test H control value (anthracnose on cucumber) [1] |
| --- | --- | --- | --- |
| O=c1ccc(-c2ccsc2)c(-c2c(F)cccc2F)n1CC(F)F [Compound 493] | L (L shows the control value of 50% or less) | H (H shows the control value more than 50%) | L (L shows the control value of 50% or less) |
| Cc1cnn(-c2cc(Br)c(=O)n(CC(F)F)c2-c2ccccc2Br)c1Cl [Compound 409] | L (L shows the control value of 50% or less) | H (H shows the control value more than 50%) | L (L shows the control value of 50% or less) |
| Cn1c(-c2ccc(F)cc2F)c(-n2cc(F)cn2)ccc1=O [Compound 463] | L (L shows the control value of 50% or less) | L (L shows the control value of 50% or less) | H (H shows the control value more than 50%) |
| Cc1cnn(-c2ccc(=O)n(C)c2-c2ccccc2F)c1 [Compound 487] | L (L shows the control value of 50% or less) | L (L shows the control value of 50% or less) | L (L shows the control value of 50% or less) |
| CCn1c(-c2c(F)cccc2F)c(-c2ccsc2C)cc(Cl)c1=O [Compound 390] | L (L shows the control value of 50% or less) | H (H shows the control value more than 50%) | L (L shows the control value of 50% or less) |
| CCn1c(-c2c(F)cccc2Br)c(-n2cc(F)cn2)cc(Cl)c1=O [Compound 391] | H (H shows the control value more than 50%) | H (H shows the control value more than 50%) | L (L shows the control value of 50% or less) |
| Cc1cnn(-c2cc(Br)c(=O)n(N(C)C)c2-c2ccc(F)cc2Cl)c1Cl [Compound 479] | L (L shows the control value of 50% or less) | L (L shows the control value of 50% or less) | H (H shows the control value more than 50%) |
| Nn1c(-c2c(F)cccc2F)c(-c2ccsc2Cl)cc(Br)c1=O [Compound 399] | L (L shows the control value of 50% or less) | L (L shows the control value of 50% or less) | L (L shows the control value of 50% or less) |
| CCn1c(-c2c(F)cccc2F)c(-c2sccc2Cl)cc(Cl)c1=O [Compound 395] | L (L shows the control value of 50% or less) | H (H shows the control value more than 50%) | H (H shows the control value more than 50%) |
| O=c1c(Br)cc(-c2ccsc2Cl)c(-c2c(F)cccc2F)n1CC(F)F [Compound 402] | L (L shows the control value of 50% or less) | H (H shows the control value more than 50%) | L (L shows the control value of 50% or less) |
| Cc1cnn(-c2ccc(=O)n(C)c2-c2ccc(F)cc2Cl)c1 [Compound 474] | L (L shows the control value of 50% or less) | L (L shows the control value of 50% or less) | L (L shows the control value of 50% or less) |
| Cc1cc(Br)sc1-c1ccc(=O)n(CC(F)F)c1-c1c(F)cccc1F [Compound 443] | L (L shows the control value of 50% or less) | H (H shows the control value more than 50%) | H (H shows the control value more than 50%) |
| CCn1c(-c2c(F)cccc2F)c(-c2sccc2Cl)ccc1=O [Compound 393] | H (H shows the control value more than 50%) | H (H shows the control value more than 50%) | H (H shows the control value more than 50%) |
| Cc1cnn(-c2cc(Br)c(=O)n(C)c2-c2ccccc2F)c1Cl [Compound 490] | L (L shows the control value of 50% or less) | H (H shows the control value more than 50%) | H (H shows the control value more than 50%) |
